# Reference: US20260184782A1 (TWIST BIOSCIENCE, published 2026)
# T1: TIGIT (UniProt Q495A1 22-141, limits assumed)
# T1 construct: also called T cell immunoreceptor with Ig and ITIM domains; hTIGIT
# T1 sequence (looked up): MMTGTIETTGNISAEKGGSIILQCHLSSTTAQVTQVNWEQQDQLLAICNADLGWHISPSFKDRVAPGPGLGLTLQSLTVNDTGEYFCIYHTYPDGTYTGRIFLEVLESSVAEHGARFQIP
# T2: TIGIT (T cell immunoreceptor with Ig and ITIM domains) (UniProt Q495A1 22-141, limits assumed)
# T2 sequence (looked up): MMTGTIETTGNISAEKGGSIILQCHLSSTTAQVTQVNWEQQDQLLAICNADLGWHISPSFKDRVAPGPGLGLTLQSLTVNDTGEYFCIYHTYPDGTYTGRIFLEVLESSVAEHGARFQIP
# Molecular target: T1, TIGIT
# Assay: ELISA
row,ELISA,Binder
1,12.1,TIGIT-31-51 (VHH-Fc) (Fc fusion) EVQLVESGGGLVQPGGSLRLSCAASGRNFRRNSMGWFRQAPGKEREFVAVITRSGGGEVTTYADSVKGRFTISADNSKNTAYLQMNSLKPEDTAVYYCAMSSVTRGSSDWGQGTLVTVSSGGGGS[in this place human IgG1 Fc with C220S (EU numbers)]

# Molecular target: T2, TIGIT (T cell immunoreceptor with Ig …)
# Assay: SPR (Carterra), VHH-Fc
# Description: The Carterra SPR system was used to assess binding affinity and affinity distribution for VHH-Fc variants. […] Table 5A provides specific values for the VHH-Fc clones for ELISA, Protein A (mg/ml), and KD (nM). FIG. 7A and FIG. 7B depict TIGIT affinity distribution for the VHH libraries, over the 20-4000 affinity threshold (FIG. 7A; monovalent KD) and the 20-1000 affinity threshold (FIG. 7B; monovalent KD).
row,Binder,Kd [nM]
1,"TIGIT-29-12 (Fc fusion, VHH-Fc) EVQLVESGGGLVQAGGSLRLSCAASGSTFSSYAMGWFRQAPGKEREFVAAITWSGTRTNYADSVKGRFTISADNAKNTVYLQMNSLKPEDTAVYYCAAAAWTIYTYDSWGQGTQVTVSSGGGGS[in this place human IgG1 Fc with C220S (EU numbers)]",70
2,"TIGIT-29-33 (Fc fusion, VHH-Fc) EVQLVESGGGLVQAGGSLRLSCAASGFIFSTYAMGWFRQAPGKERELVSAITRSGITTYYADSVKGRFTISADNAKNTVYLQMNSLKPEDTAVYYCAAAAWTIYEYDYWGQGTQVTVSSGGGGS[in this place human IgG1 Fc with C220S (EU numbers)]",74
3,"TIGIT-29-30 (Fc fusion, VHH-Fc) EVQLVESGGGLVQAGGSLRLSCAASGFTFSSYAMGWFRQAPGKEREFVAAITWSGTRTDYADSVKGRFTISADNAKNTVYLQMNSLKPEDTAVYYCAAAAWRYSEYDYWGQGTQVTVSSGGGGS[in this place human IgG1 Fc with C220S (EU numbers)]",65
4,"TIGIT-29-37 (Fc fusion, VHH-Fc) EVQLVESGGGLVQAGGSLRLSCAASGRTFSNYAMGWFRQAPGKEREFVAGISWSGTRTYYADSVKGRFTISADNAKNTVYLQMNSLKPEDTAVYYCAAAAWTIYEYDYWGQGTQVTVSSGGGGS[in this place human IgG1 Fc with C220S (EU numbers)]",89
5,"TIGIT-31-15 (Fc fusion, VHH-Fc) EVQLVESGGGLVQPGGSLRLSCAASGFTFSTYGMGWFRQAPGKEREFVAAISWSGVSKHYADSVKGRFTISADNSKNTAYLQMNSLKPEDTAVYYCASSPYGPLYRSTHYYDWGQGTLVTVSSGGGGS[in this place human IgG1 Fc with C220S (EU numbers)]",88
6,"TIGIT-31-27 (Fc fusion, VHH-Fc) EVQLVESGGGLVQPGGSLRLSCAASGFTFGHYAMGWFRQAPGKEREFVAAISWSGVSTYYADSVKGRFTISADNSKNTAYLQMNSLKPEDTAVYYCASSPYGPLYRSTHYYDWGQGTLVTVSSGGGGS[in this place human IgG1 Fc with C220S (EU numbers)]",96
7,"TIGIT-31-10 (Fc fusion, VHH-Fc) EVQLVESGGGLVQPGGSLRLSCAASGHTFSSYGMGWFRQAPGKERELVAAISWSGISTIYADSVKGRFTISADNSKNTAYLQMNSLKPEDTAVYYCASSPYGPLYRSTHYYDWGQGTLVTVSSGGGGS[in this place human IgG1 Fc with C220S (EU numbers)]",94
8,"TIGIT-31-33 (Fc fusion, VHH-Fc) EVQLVESGGGLVQPGGSLRLSCAASGFTFSTSWMGWFRQAPGKERELVASITSGGSTNYADSVKGRFTISADNSKNTAYLQMNSLKPEDTAVYYCAADVWYGSTWRNWGQGTLVTVSSGGGGS[in this place human IgG1 Fc with C220S (EU numbers)]",96
9,"TIGIT-30-39 (Fc fusion, VHH-Fc) EVQLVESGGGLVQAGGSLRLSCAASGFTFSTSWMGWFRQAPGKEREWVVGISSGGSTHYADSVKGRFTISADNAKNTVYLQMNSLKPEDTAVYYCAADVWYGSTWRNWGQGTQVTVSSGGGGS[in this place human IgG1 Fc with C220S (EU numbers)]",88
10,"TIGIT-30-01 (Fc fusion, VHH-Fc; also called 30-1) EVQLVESGGGLVQAGGSLRLSCAASGFAFSSYWMGWFRQAPGKERELVAARNSGGNTNYADSVKGRFTISADNAKNTVYLQMNSLKPEDTAVYYCAADVWYGSTWRNWGQGTQVTVSSGGGGS[in this place human IgG1 Fc with C220S (EU numbers)]",71
11,"TIGIT-31-35 (Fc fusion, VHH-Fc) EVQLVESGGGLVQPGGSLRLSCAASGFTFSTSWMGWFRQAPGKERELVASITSGGTTNYADSVKGRFTISADNSKNTAYLQMNSLKPEDTAVYYCAADVWYGSTWRNWGQGTLVTVSSGGGGS[in this place human IgG1 Fc with C220S (EU numbers)]",66
12,"TIGIT-31-18 (Fc fusion, VHH-Fc) EVQLVESGGGLVQPGGSLRLSCAASGFTFSGNWMGWFRQAPGKEREFVASISSGSAINYADSVKGRFTISADNSKNTAYLQMNSLKPEDTAVYYCAADVWYGSTWRNWGQGTLVTVSSGGGGS[in this place human IgG1 Fc with C220S (EU numbers)]",99
13,"TIGIT-30-52 (Fc fusion, VHH-Fc) EVQLVESGGGLVQAGGSLRLSCAASGRTFSNYFMGWFRQAPGKERESVATVTWRDNITYYADSVKGRFTISADNAKNTVYLQMNSLKPEDTAVYYCASAGRWGQGTQVTVSSGGGGS[in this place human IgG1 Fc with C220S (EU numbers)]",49

# Second part, the binder after the results:
row,Kd [nM],Binder
1,100,"TIGIT-30-5 (Fc fusion, VHH-Fc) EVQLVESGGGLVQAGGSLRLSCAASGGTFRNYGMGWFRQAPGKERELVAAISWSGVSTIYADSVKGRFTISADNAKNTVYLQMNSLKPEDTAVYYCASSPYGPLYRSTHYYDWGQGTQVTVSSGGGGS[in this place human IgG1 Fc with C220S (EU numbers)]"
2,99,"TIGIT-30-40 (Fc fusion, VHH-Fc) EVQLVESGGGLVQAGGSLRLSCAASGFTFSGNWMGWFRQAPGKEREWVVGISSGGSTHYADSVKGRFTISADNAKNTVYLQMNSLKPEDTAVYYCAADVWYGSTWRNWGQGTQVTVSSGGGGS[in this place human IgG1 Fc with C220S (EU numbers)]"
3,94,"TIGIT-29-03 (Fc fusion, VHH-Fc; also called 29-3) EVQLVESGGGLVQAGGSLRLSCAASGFTFSSYAMGWFRQAPGKEREFVAAITWSGTRTDYADSVKGRFTISADNAKNTVYLQMNSLKPEDTAVYYCAAAAWRYSEYDYWGQGTQVTVSSGGGGS[in this place human IgG1 Fc with C220S (EU numbers)]"
4,90,"TIGIT-29-40 (Fc fusion, VHH-Fc) EVQLVESGGGLVQAGGSLRLSCAASGFTFDNYAMGWFRQAPGKEREFVATITWSGTRTNYADSVKGRFTISADNAKNTVYLQMNSLKPEDTAVYYCAAAAWTIYDYDYWGQGTQVTVSSGGGGS[in this place human IgG1 Fc with C220S (EU numbers)]"
5,88,"TIGIT-29-21 (Fc fusion, VHH-Fc) EVQLVESGGGLVQAGGSLRLSCAASGSTFSNYAMGWFRQAPGKERELVSAITWSSSRTYYADSVKGRFTISADNAKNTVYLQMNSLKPEDTAVYYCAAAAWTIYNFEYWGQGTQVTVSSGGGGS[in this place human IgG1 Fc with C220S (EU numbers)]"
6,78,"TIGIT-31-39 (Fc fusion, VHH-Fc) EVQLVESGGGLVQPGGSLRLSCAASGFTFSTSWMGWFRQAPGKERELVAGVNSNGYINYADSVKGRFTISADNSKNTAYLQMNSLKPEDTAVYYCAADVWYGSTWRNWGQGTLVTVSSGGGGS[in this place human IgG1 Fc with C220S (EU numbers)]"
7,78,"TIGIT-30-53 (Fc fusion, VHH-Fc) EVQLVESGGGLVQAGGSLRLSCAASGLTFSNYVMGWFRQAPGKERESVAAINWDSARTYYADSVKGRFTISADNAKNTVYLQMNSLKPEDTAVYYCASAGRWGQGTQVTVSSGGGGS[in this place human IgG1 Fc with C220S (EU numbers)]"
8,74,"TIGIT-31-20 (Fc fusion, VHH-Fc) EVQLVESGGGLVQPGGSLRLSCAASGFTFSGNWMGWFRQAPGKEREFVAGILSDGRELYADSVKGRFTISADNSKNTAYLQMNSLKPEDTAVYYCAADVWYGSTWRNWGQGTLVTVSSGGGGS[in this place human IgG1 Fc with C220S (EU numbers)]"
9,55,"TIGIT-30-15 (Fc fusion, VHH-Fc) EVQLVESGGGLVQAGGSLRLSCAASGFTFSGNWMGWFRQAPGKEREWVSGISSGGGRTYYADSVKGRFTISADNAKNTVYLQMNSLKPEDTAVYYCAADVWYGSTWRNWGQGTQVTVSSGGGGS[in this place human IgG1 Fc with C220S (EU numbers)]"
10,53,"TIGIT-31-47 (Fc fusion, VHH-Fc) EVQLVESGGGLVQPGGSLRLSCAASGFTFSGNWMGWFRQAPGKEREWVVGISSGGTPHYADSVKGRFTISADNSKNTAYLQMNSLKPEDTAVYYCAADVWYGSTWRNWGQGTLVTVSSGGGGS[in this place human IgG1 Fc with C220S (EU numbers)]"

# Molecular target: T1, TIGIT
# Assay: SPR (Carterra), VHH-Fc
Kd [nM],koff [s⁻¹],kon [M⁻¹ s⁻¹],Binder
784,0.067,85000,TIGIT-31-51 (VHH-Fc) (Fc fusion) EVQLVESGGGLVQPGGSLRLSCAASGRNFRRNSMGWFRQAPGKEREFVAVITRSGGGEVTTYADSVKGRFTISADNSKNTAYLQMNSLKPEDTAVYYCAMSSVTRGSSDWGQGTLVTVSSGGGGS[in this place human IgG1 Fc with C220S (EU numbers)]
